Source: the supplement of paper PMC9174493
Structures can show the parent of a compound that is named as a salt. The list shows a part of the results. Single values of this set are uncertain. Values with irradiation are relative to irradiated vehicle.

The molecules below were run on A549-Dual (assay: ISRE reporter (Lucia luciferase) activity, viability-corrected, relative to vehicle (fold change vs vehicle); higher = more activation of STING-IRF / NF-kB immune response reporter). Conditions: 10 µM; irradiation: 8 Gy/4 fr.
`CC(C)COCC(CN(Cc1ccccc1)c1ccccc1)N1CCCC1.Cl.O` (stereo unspecified) [Bepridil hydrochloride] gave an ISRE reporter of 0.37. `CCOC(=O)c1ccc(N)cc1.Cl` [Benzocaine hydrochloride] showed an ISRE reporter of 0.596. Molecule `Cl.Nc1c2c(nc3ccccc13)CCCC2` [Tacrine HCl] has an ISRE reporter of 0.731. Molecule `CCCC1CC(C(=O)NC(C(C)Cl)C2OC(SC)C(O)C(O)C2O)N(C)C1.Cl` (stereo unspecified) [Clindamycin HCl] has an ISRE reporter of 1. With `O=C(O)c1ccccc1C(=O)Nc1ccc(S(=O)(=O)Nc2nccs2)cc1` [Phthalylsulfathiazole] the ISRE reporter was 0.761. Work on `NS(=O)(=O)c1cc(C2(O)NC(=O)c3ccccc32)ccc1Cl` (stereo unspecified) [Chlorthalidone] yielded an ISRE reporter of 1.1. With `Clc1ccc(COC(Cn2ccnc2)c2ccc(Cl)cc2Cl)c(Cl)c1` (stereo unspecified) [Miconazole] the ISRE reporter was 0.52. For `CC(C)OC(=O)OCOP(=O)(COC(C)Cn1cnc2c(N)ncnc21)OCOC(=O)OC(C)C.O=C(O)/C=C/C(=O)O` (stereo unspecified) [Tenofovir Disoproxil Fumarate], the ISRE reporter was 0.584. `Nc1ccc(S(=O)(=O)Nc2ccccn2)cc1` [Sulfapyridine] showed an ISRE reporter of 0.795. `C=CCc1ccc(O)c(-c2cc(CC=C)ccc2O)c1` [Magnolol] gave an ISRE reporter of 0.704. `NS(=O)(=O)c1cc(Cl)c(Cl)c(S(N)(=O)=O)c1` [Dichlorphenamide (Diclofenamide)] gave an ISRE reporter of 0.787. In the case of `CCCCCc1ccc(C)cc1O` [Amylmetacresol], the ISRE reporter is reported as 0.717. For `CC(C)N(CCCCOCC(=O)NS(C)(=O)=O)c1cnc(-c2ccccc2)c(-c2ccccc2)n1` [Selexipag], the ISRE reporter was 0.554. For `CC(CCC(=O)O)C1CCC2C3CC(O)C4CC(O)CCC4(C)C3CCC12C` (stereo unspecified) [Hyodeoxycholic acid (HDCA)], the ISRE reporter was 1.03. Work on `CC(OC1OCCN(Cc2n[nH]c(=O)[nH]2)C1c1ccc(F)cc1)c1cc(C(F)(F)F)cc(C(F)(F)F)c1` (stereo unspecified) [Aprepitant] yielded an ISRE reporter of 0.511. `CCOC(=O)/C=C(C)/C=C/C=C(C)/C=C/c1c(C)cc(OC)c(C)c1C` [Etretinate] showed an ISRE reporter of 0.499. `C=C1C(CO)C(O)CC1n1cnc2c(=O)nc(N)[nH]c21.O` (stereo unspecified) [Entecavir Hydrate] showed an ISRE reporter of 0.758. Work on `NC(=O)c1cccnc1` [Nicotinamide (Vitamin B3)] yielded an ISRE reporter of 0.734. Molecule `O=P(O)(O)OC(Cn1cncn1)(Cn1cncn1)c1ccc(F)cc1F` [Fosfluconazole] has an ISRE reporter of 0.716. `Cl.N=C(N)NC(=N)N1CCOCC1` [Moroxydine HCl] was tested, and the ISRE reporter was 0.874. `CC(CN1CC(=O)NC(=O)C1)N1CC(=O)NC(=O)C1` (stereo unspecified) [Dexrazoxane] showed an ISRE reporter of 0.929. Work on `CCCc1nn(C)c2c(=O)[nH]c(-c3cc(S(=O)(=O)N4CCN(C)CC4)ccc3OCC)nc12.O=C(O)CC(O)(CC(=O)O)C(=O)O` [Sildenafil Citrate] yielded an ISRE reporter of 0.878. With `CCC(C)CCCCC(=O)NC(CCN)C(=O)NC(C(=O)NC(CCN)C(=O)NC1CCNC(=O)C(C(C)O)NC(=O)C(CCN)NC(=O)C(CCN)NC(=O)C(CC(C)C)NC(=O)C(Cc2ccccc2)NC(=O)C(CCN)NC1=O)C(C)O.O=S(=O)(O)O` (stereo unspecified) [Polymyxin B sulphate] the ISRE reporter was 0.863. Work on `CC(C)C(NC(=O)C(CC(=O)O)NC(=O)C(CCCCN)NC(=O)C(N)CCCNC(=N)N)C(=O)NC(Cc1ccc(O)cc1)C(=O)O` (stereo unspecified) [Thymopentin] yielded an ISRE reporter of 1.04. `C[N+](C)(CCOc1ccccc1)Cc1ccccc1.O=C([O-])c1cc2ccccc2cc1O` [Bephenium Hydroxynaphthoate] gave an ISRE reporter of 0.89. Work on `COC1CC2CCC(C)C(O)(O2)C(=O)C(=O)N2CCCCC2C(=O)OC(C(C)CC2CCC(n3cnnn3)C(OC)C2)CC(=O)C(C)/C=C(\C)C(O)C(OC)C(=O)C(C)CC(C)/C=C/C=C/C=C/1C` (stereo unspecified) [Zotarolimus(ABT-578)] yielded an ISRE reporter of 0.543. In the case of `COCCCN1CCC(NC(=O)c2cc(Cl)c(N)c3c2OCC3)CC1` [Prucalopride], the ISRE reporter is reported as 0.604. In the case of `CSc1nc2cc(Oc3cccc(Cl)c3Cl)c(Cl)cc2[nH]1` [Triclabendazole], the ISRE reporter is reported as 0.676. `Cc1cc(N2CCN(C3CNC(C(=O)N4CCSC4)C3)CC2)n(-c2ccccc2)n1` (stereo unspecified) [Teneligliptin hydrobromide] gave an ISRE reporter of 0.965.

Same assay, conditions: 10 µM; irradiation: none
`COc1ccccc1OCC(O)CN1CCN(CC(=O)Nc2c(C)cccc2C)CC1` (stereo unspecified) [Ranolazine] showed an ISRE reporter of 0.474. `Cc1ncc(COP(=O)(O)O)c(C=O)c1O` [Pyridoxal phosphate] gave an ISRE reporter of 0.77. Work on `COc1cc([N]([Na])S(=O)(=O)c2ccc(N)cc2)nc(OC)n1` [SulfadiMethoxine sodium] yielded an ISRE reporter of 0.743. Molecule `C1CCN2CC3CC(CN4CCCCC34)C2C1.O.O.O.O.O.O=S(=O)(O)O` (single isomer, unassigned; (-)) [(-)-Sparteine Sulfate] has an ISRE reporter of 0.684. For `CN1CCc2cc3c(cc2C(=O)Cc2ccc4c(c2C1)OCO4)OCO3` [Protopine], the ISRE reporter was 1.73. In the case of `CC1(C)SC2C(NC(=O)C(N)c3ccc(O)cc3)C(=O)N2C1C(=O)O` (stereo unspecified) [Amoxicillin], the ISRE reporter is reported as 0.711. In the case of `CCNC1CN(CCCOC)S(=O)(=O)c2sc(S(N)(=O)=O)cc21` (stereo unspecified) [Brinzolamide], the ISRE reporter is reported as 0.843. Molecule `CNC(=O)c1cnn(-c2nc(N)c3ncn(C4OC(CO)C(O)C4O)c3n2)c1` (stereo unspecified) [Regadenoson] has an ISRE reporter of 0.432. Work on `O.O.OCC1OC(OC2OC(CO)C(O)C(O)C2O)C(O)C(O)C1O` [D-(+)-Trehalose dihydrate] yielded an ISRE reporter of 0.614. For `CC1(C)SC2CC(=O)N2C1C(=O)OCOC(=O)C1N2C(=O)C(NC(=O)C(N)c3ccccc3)C2S(=O)(=O)C1(C)C.Cc1ccc(S(=O)(=O)O)cc1` (stereo unspecified) [Sultamicillin Tosylate], the ISRE reporter was 0.74. Molecule `CCN(CC)CCNC(=O)c1cc(Cl)c(N)cc1OC` [Metoclopramide] has an ISRE reporter of 0.601. For `CC(C)COCC(CN(Cc1ccccc1)c1ccccc1)N1CCCC1.Cl.O` (stereo unspecified) [Bepridil hydrochloride], the ISRE reporter was 0.901. In the case of `CCOC(=O)c1ccc(N)cc1.Cl` [Benzocaine hydrochloride], the ISRE reporter is reported as 0.583. Work on `Cl.Nc1c2c(nc3ccccc13)CCCC2` [Tacrine HCl] yielded an ISRE reporter of 0.544. For `CCCC1CC(C(=O)NC(C(C)Cl)C2OC(SC)C(O)C(O)C2O)N(C)C1.Cl` (stereo unspecified) [Clindamycin HCl], the ISRE reporter was 0.923. In the case of `O=C(O)c1ccccc1C(=O)Nc1ccc(S(=O)(=O)Nc2nccs2)cc1` [Phthalylsulfathiazole], the ISRE reporter is reported as 0.677. Molecule `NS(=O)(=O)c1cc(C2(O)NC(=O)c3ccccc32)ccc1Cl` (stereo unspecified) [Chlorthalidone] has an ISRE reporter of 1.01. With `Clc1ccc(COC(Cn2ccnc2)c2ccc(Cl)cc2Cl)c(Cl)c1` (stereo unspecified) [Miconazole] the ISRE reporter was 0.53. With `CC(C)OC(=O)OCOP(=O)(COC(C)Cn1cnc2c(N)ncnc21)OCOC(=O)OC(C)C.O=C(O)/C=C/C(=O)O` (stereo unspecified) [Tenofovir Disoproxil Fumarate] the ISRE reporter was 0.877. `Nc1ccc(S(=O)(=O)Nc2ccccn2)cc1` [Sulfapyridine] showed an ISRE reporter of 1.06. Work on `C=CCc1ccc(O)c(-c2cc(CC=C)ccc2O)c1` [Magnolol] yielded an ISRE reporter of 0.6. With `NS(=O)(=O)c1cc(Cl)c(Cl)c(S(N)(=O)=O)c1` [Dichlorphenamide (Diclofenamide)] the ISRE reporter was 0.546. Molecule `CCCCCc1ccc(C)cc1O` [Amylmetacresol] has an ISRE reporter of 0.915. Work on `CC(C)N(CCCCOCC(=O)NS(C)(=O)=O)c1cnc(-c2ccccc2)c(-c2ccccc2)n1` [Selexipag] yielded an ISRE reporter of 0.768. With `CC(CCC(=O)O)C1CCC2C3CC(O)C4CC(O)CCC4(C)C3CCC12C` (stereo unspecified) [Hyodeoxycholic acid (HDCA)] the ISRE reporter was 0.657. `CC(OC1OCCN(Cc2n[nH]c(=O)[nH]2)C1c1ccc(F)cc1)c1cc(C(F)(F)F)cc(C(F)(F)F)c1` (stereo unspecified) [Aprepitant] showed an ISRE reporter of 1.52. `CCOC(=O)/C=C(C)/C=C/C=C(C)/C=C/c1c(C)cc(OC)c(C)c1C` [Etretinate] was tested, and the ISRE reporter was 0.416. `C=C1C(CO)C(O)CC1n1cnc2c(=O)nc(N)[nH]c21.O` (stereo unspecified) [Entecavir Hydrate] showed an ISRE reporter of 0.76. Work on `NC(=O)c1cccnc1` [Nicotinamide (Vitamin B3)] yielded an ISRE reporter of 0.559. For `O=P(O)(O)OC(Cn1cncn1)(Cn1cncn1)c1ccc(F)cc1F` [Fosfluconazole], the ISRE reporter was 0.754. Work on `Cl.N=C(N)NC(=N)N1CCOCC1` [Moroxydine HCl] yielded an ISRE reporter of 0.782. `CC(CN1CC(=O)NC(=O)C1)N1CC(=O)NC(=O)C1` (stereo unspecified) [Dexrazoxane] showed an ISRE reporter of 3.75. `CCCc1nn(C)c2c(=O)[nH]c(-c3cc(S(=O)(=O)N4CCN(C)CC4)ccc3OCC)nc12.O=C(O)CC(O)(CC(=O)O)C(=O)O` [Sildenafil Citrate] was tested, and the ISRE reporter was 0.819. Molecule `CCC(C)CCCCC(=O)NC(CCN)C(=O)NC(C(=O)NC(CCN)C(=O)NC1CCNC(=O)C(C(C)O)NC(=O)C(CCN)NC(=O)C(CCN)NC(=O)C(CC(C)C)NC(=O)C(Cc2ccccc2)NC(=O)C(CCN)NC1=O)C(C)O.O=S(=O)(O)O` (stereo unspecified) [Polymyxin B sulphate] has an ISRE reporter of 0.964. With `CC(C)C(NC(=O)C(CC(=O)O)NC(=O)C(CCCCN)NC(=O)C(N)CCCNC(=N)N)C(=O)NC(Cc1ccc(O)cc1)C(=O)O` (stereo unspecified) [Thymopentin] the ISRE reporter was 0.767. `C[N+](C)(CCOc1ccccc1)Cc1ccccc1.O=C([O-])c1cc2ccccc2cc1O` [Bephenium Hydroxynaphthoate] showed an ISRE reporter of 0.958. With `COC1CC2CCC(C)C(O)(O2)C(=O)C(=O)N2CCCCC2C(=O)OC(C(C)CC2CCC(n3cnnn3)C(OC)C2)CC(=O)C(C)/C=C(\C)C(O)C(OC)C(=O)C(C)CC(C)/C=C/C=C/C=C/1C` (stereo unspecified) [Zotarolimus(ABT-578)] the ISRE reporter was 1.09.
